Experimental data as given in the supplement of paper PMC10338343.
± gives the standard deviation. Whole data set: some 3,000 sequences, median “pre-steady-state target cleavage rate” near 0.0079, cut for the highest 2% near 0.2. The list shows a part of the results, in another mix than the full data.

Test system: MILI (PIWIL2) piRISC loaded with piRNA #2 (26 nt)
Assay: pre-steady-state target cleavage rate (min^-1); MIWI and MILI are mouse PIWI proteins and EfPiwi is from a freshwater sponge; tags in brackets are library labels; higher = faster piRNA-guided slicing of the target
Conditions: guide: piRNA #2 5'p-UUAGGUAACCCAGUAGAUCCAGAGGA; auxiliary factor: 500 nM mouse GTSF1
Procedure: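 Cleave-'n-Seq: a library of target RNAs (target site embedded in constant flanks, ACAGCATTCCGCGTTAGTGATATCCG... 5' flank; DNA-blocked outside the site) at 0.1 nM was incubated with 1 nM active mouse MILI or MIWI piRISC (synthetic 5'-monophosphorylated piRNA guide) with or without 500 nM mouse GTSF1 at 33 °C for 1 min to 16 h. Uncleaved targets were sequenced and normalised to non-target controls, and the pooled three trials were fitted to a burst-and-steady-state model to give the pre-steady-state cleavage rate (min^-1; k3 is constrained to at most 1e-4). Sequence is the target site only; target names encode pairing extent (gX:gY) and contiguous / 1-mismatch / 2-mismatch / bulge geometry. Fits with R² ≤ 0 are excluded.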

First: CUUAUCCUCUGGAUCUACUGGGUUACCAA
Second: CUUAUCCUCUCGAUCUACUGGGAUACCUAA
The “pre-steady-state target cleavage rate” value of the first is higher: 0.123 ± 0.022 for the first, 0.0565 ± 0.013 for the second.

Going from CUUAAGGAGAGGAACUACAGGGUUACCUAA to CUUAAGCUGUGGAUCUACUGGGUUACCUUA, the “pre-steady-state target cleavage rate” value rises from 0.00511 ± 0.0033 to 0.0285 ± 0.014.

CUUAAGGAGUCGAUCUACUCGGUUACCUAA and CUUAAGGAGACGAUUUACUGGGUUACCUAA are within error of each other in “pre-steady-state target cleavage rate” value: 0.00291 ± 0.0026 for the first, 0.00401 ± 0.0034 for the second.

First: CUUAAGGAGACCUAGAACUGGGUUACCAUA [g4:g14:cont:t1A]
Second: CUUAAGCUCAGGAACUACUGGGUUACCUAA
The “pre-steady-state target cleavage rate” value of the first is lower: less than 0.0001 for the first, 0.0602 ± 0.017 for the second.

First: CUUAACCUCUGGAUCUACAGGGUUACCUAA
Second: CUUAACCUCUGCAUCUACUGGGAUACCUAA
The “pre-steady-state target cleavage rate” value of the first is higher: 0.095 ± 0.015 for the first, 0.0444 ± 0.022 for the second.

Going from CUUAAGCUCUGGAUCUACUGGGUUACUCUAA to CUUAAGGACUGGAACUACUGGGUUACCUUA, the “pre-steady-state target cleavage rate” value falls from 0.098 ± 0.025 to 0.0114 ± 0.011.

First: CUUAAGGUCUGGAUCUACUGCGUUACCUUA
Second: CUUAAGCUCUGGAUACUACUGGGUUACCUAA
The “pre-steady-state target cleavage rate” value of the first is lower: 0.00674 ± 0.003 for the first, 0.0326 ± 0.011 for the second.

CUUAAGCUCUGGACUACUGGGUUACCUAA and CUUAAGGUCUGGAUCUACUGGGUUGCCUAA are within error of each other in “pre-steady-state target cleavage rate” value: 0.0618 ± 0.015 for the first, 0.0571 ± 0.013 for the second.

First: CUUAACCUCUGGAUCAACUGGGUUACCAAA
Second: CUUAAGGACUGGAUCUAGAGGGUUACCUAA
The “pre-steady-state target cleavage rate” value of the first is higher: 0.0814 ± 0.022 for the first, 0.0214 ± 0.0071 for the second.

CUUAAGGUCUGGUUCUACUGGGAUACCUAA and CUUAUCCUCAGGAUCUACUGGGUUUCCUAA are within error of each other in “pre-steady-state target cleavage rate” value: 0.0287 ± 0.014 for the first, 0.0547 ± 0.017 for the second.

Compared with CUUAAGCUCUGGAUCUACUGGGUUACCAA, CUUAUCCUCUGGAUCUACUGGGAUACCUAA is lower in “pre-steady-state target cleavage rate” value: 0.11 ± 0.024 for the first, 0.0509 ± 0.014 for the second.

Going from CUUAAGGAGACCUAGUACUGGGUUAGCUAA to CUUAAGGAGUGGUUCUAGUGGGUUACCUAA, the “pre-steady-state target cleavage rate” value rises from less than 0.0001 to 0.0079 ± 0.0042.

Compared with CUUAAGGUCUGGAUCUACUGGGUUACUCUAA, CUUAAGGAGAGCAUCUACUCGGUUACCUAA is lower in “pre-steady-state target cleavage rate” value: 0.0211 ± 0.007 for the first, 0.00338 ± 0.0022 for the second.

First: CUUAAGGUCUGGAUCUACUGGGUUACCUCA
Second: CUUAACGUCUCGAUCUACUGGGUUACCUAA
The “pre-steady-state target cleavage rate” value of the first is lower: 0.0544 ± 0.013 for the first, 0.1 ± 0.019 for the second.

Compared with CUUAUCCACUGGAUCUACUGGGUUACCUAA, CUUAACCUGUCGAUCUACUGGGUUACCUAA is lower in “pre-steady-state target cleavage rate” value: 0.124 ± 0.016 for the first, 0.0671 ± 0.016 for the second.

Going from CUUAUCCUCUGGAUGUACUGGGUUACCAAA to CUUAACCUCUGGAUCUACUCGCUUACCUAA, the “pre-steady-state target cleavage rate” value falls from 0.0487 ± 0.013 to less than 0.0001.

CUUAACCUCUGCAUCUACUGCGUUACCUAA and CUUAAGGUCUCGAACUACUGGGUUACCUAA are within error of each other in “pre-steady-state target cleavage rate” value: 0.0245 ± 0.0094 for the first, 0.0138 ± 0.0082 for the second.

CUUAAGCUCUGGAUCUACUGGGUUACCAUA and CUUAAGGUCUCGAUCUACUGGGUUACCUAA are within error of each other in “pre-steady-state target cleavage rate” value: 0.0861 ± 0.017 for the first, 0.0762 ± 0.018 for the second.

First: CUUAAGGAGAAGAUCUACUGGGUUACCUAA
Second: CUUAUCGUCUGGAUCUACUGGGUUACCUAA
The “pre-steady-state target cleavage rate” value of the first is lower: 0.00422 ± 0.0031 for the first, 0.0863 ± 0.015 for the second.

CUUAACCUCUGGAUCAUCUGGGUUACCUAA and CUUAAGGACUGGCAUCUACUGGGUUACCUAA are within error of each other in “pre-steady-state target cleavage rate” value: 0.0737 ± 0.025 for the first, 0.0524 ± 0.018 for the second.

CUUAUCCUGUGGAUCUUCUGGGUUACCUAA and CUUAUCCUCUGGAUCUACUGGGCUACCUAA are within error of each other in “pre-steady-state target cleavage rate” value: 0.0487 ± 0.014 for the first, 0.0338 ± 0.013 for the second.

Going from CUUAUCCUCUGGAUCUAGUGGGUAACCUAA to CUUAUGCUCUGGAUGUACUGGGUUACCUAA, the “pre-steady-state target cleavage rate” value rises from 0.0205 ± 0.0054 to 0.0965 ± 0.021.

Going from CUUAUCCUCUGGAUCUACUGGGUUAGCUUA to CUUAAGGAGACCUAGUACAGGCUUACCUAA, the “pre-steady-state target cleavage rate” value falls from 0.128 ± 0.031 to less than 0.0001.

Compared with CUUAAGCUCUGGAUCUAUUGGGUUACCUAA, CUUAAGCUCUGGUUCUACAGGGUUACCUAA is higher in “pre-steady-state target cleavage rate” value: 0.0302 ± 0.0083 for the first, 0.104 ± 0.021 for the second.

First: CUUAACCUCUGGAUCUACAGGGUUAGCUAA
Second: CUUAAGGUCUGGAUCUUCUGGGUUACCUAA
The “pre-steady-state target cleavage rate” value of the first is lower: 0.0246 ± 0.0085 for the first, 0.0671 ± 0.015 for the second.

First: CUUAUCCUCUGGAUCUACUGGGAUACGUAA
Second: CUUAAGGUGUGGAUCUACAGGGUUACCUAA
The “pre-steady-state target cleavage rate” value of the first is lower: 0.00621 ± 0.0037 for the first, 0.0839 ± 0.013 for the second.

CUUAAGGUCUGGAUCUACUGGGUUACGUUA and CUUAACCUCUGGAUCUACUGGGAUACCUAA are within error of each other in “pre-steady-state target cleavage rate” value: 0.0579 ± 0.016 for the first, 0.0534 ± 0.015 for the second.

CUUAACCUCUGGAUCAACUGGGUUACCUUA and CUUAUGCUCUGGAACUACUGGGUUACCUAA are within error of each other in “pre-steady-state target cleavage rate” value: 0.0681 ± 0.017 for the first, 0.0923 ± 0.019 for the second.

First: CUUAAGCUCUGGUUCUACUGGGUUACCAAA
Second: CUUAAGGAGUGGAUCUACUGGGUUACCUAC [g2:g21:cont:t1C]
The “pre-steady-state target cleavage rate” value of the first is higher: 0.199 ± 0.063 for the first, 0.0381 ± 0.011 for the second.

First: CUUAACGUCUGGAUCUACUGGGUUACGUAA
Second: CUUAACCUCUGGAUCUACUGGGUUACGUUA
The “pre-steady-state target cleavage rate” value of the first is lower: 0.0333 ± 0.0083 for the first, 0.0873 ± 0.019 for the second.

Compared with CUUAAGGAGACCUACACUGGGUUACCUAA, CUUAACCACAGGAUCUACUGGGUUACCUAA is higher in “pre-steady-state target cleavage rate” value: less than 0.0001 for the first, 0.0274 ± 0.011 for the second.

CUUAUCGUCUGGAUGUACUGGGUUACCUAA and CUUAAGGUCUGGAACUACUGGGAUACCUAA are within error of each other in “pre-steady-state target cleavage rate” value: 0.0226 ± 0.018 for the first, 0.0098 ± 0.0064 for the second.

Going from CUUAAGGAGAGGAUCUACUAGGUUACCUAA to CUUAAGGAGACCUACUACUGGCUUACCAAA, the “pre-steady-state target cleavage rate” value falls from 0.00503 ± 0.0028 to less than 0.0001.

CUUAAGGUCUGGUUCUACUGCGUUACCUAA and CUUAAGGUCUGCAACUACUGGGUUACCUAA are within error of each other in “pre-steady-state target cleavage rate” value: 0.0107 ± 0.008 for the first, 0.0152 ± 0.01 for the second.

CUUAAGGUCUGGAUCUACUGGGUUACCUGA and CUUAAGCUCAGGAUCUUCUGGGUUACCUAA are within error of each other in “pre-steady-state target cleavage rate” value: 0.0814 ± 0.03 for the first, 0.05 ± 0.015 for the second.

CUUAAGGUCAGGAUCUACUGGGUAACCUAA and CUUAAGGUCUGGAUCUACUGGGGUUACCUAA are within error of each other in “pre-steady-state target cleavage rate” value: 0.0125 ± 0.0079 for the first, 0.0236 ± 0.0061 for the second.
